Experimental findings from patent publication US12338279B2, “Selective and potent inhibitory antibodies of myostatin activation” (SCHOLAR ROCK, INC., priority 2022, dated 2025) are described below.

Assay [1] relates to biotinylated human pro-myostatin. As to the kind of experiment: Biacore 8k SPR binding affinity, human pro-myostatin. The text has this:
(§1) The Biacore™ 8 k SPR system was utilized to evaluate the binding affinity of myostatin antibodies to biotinylated human, murine, and cyno pro-myostatin. Biotin CAPture kit and sensor chips (Cytiva) were utilized in these experiments to immobilize the various antigens, followed by flowing a range of concentrations of each of the test antibodies.
In general terms: In SPR one partner is held on a chip, and binding of the other changes the refractive index at the surface.

Assay [2] concerns biotinylated murine pro-myostatin. As to the kind of experiment: Biacore 8k SPR binding affinity, murine pro-myostatin. The arrangement: species or system mouse.
Text: as §1

Assay [3] has as its target T1, biotinylated cyno pro-myostatin (Macaca fascicularis, UniProt Q95J86).
T1 construct: biotin (label)
As to the kind of experiment: Biacore 8k SPR binding affinity, cyno pro-myostatin. Set-up: species or system cynomolgus monkey.
Text: as §1

The subject of assay [4] is dexamethasone-induced muscle atrophy in C57BL6 male mice. As to the kind of experiment: Dexamethasone-induced muscle atrophy mouse model. Particulars: 3 mg/kg/day; FIG. 6A, FIG. 9A. It counts as in vivo. The text has this:
To evaluate in vivo efficacy of the novel myostatin-selective inhibitors disclosed herein, the ability of the antibodies to preserve lean muscle mass was examined in a dexamethasone-induced atrophy mouse model. An excess of glucocorticoids directly stimulates myostatin production via interactions with a glucocorticoid response element in the myostatin promoter, thus inducing loss of muscle mass. As shown herein, antibodies of the disclosure prevented glucocorticoid-induced muscle atrophy.
C57BL6 male mice (n=8) at 13-14 weeks of age were given normal drinking water or water containing dexamethasone at a concentration of 2.5 mg/kg (17.5 grams dexamethasone per liter of drinking water) to induce atrophy. […] Body weight was measured daily. Body composition was measured by qNMR to determine lean mass pre-dosing, at day 7, and at day 14. After 14 days of dexamethasone exposure, the animals were terminated, and body weight and gastrocnemius weight were measured. […]
C57BL6 male mice (n=8) at 13-14 weeks of age were given normal drinking water or water containing dexamethasone at a concentration of 2.5 mg/kg to induce atrophy. […] Muscle mass at days −1, 6 and 13 was measured using qNMR. At the end of the study (day 14), serum from each animal was collected and changes in body weight, body composition (qNMR), left and right gastrocnemius weight, and left and right quadriceps weight were measured. […]

B1: Ab127: anti-pro/latent myostatin antibody; CDRs in Tables 2d-f, variable domains Table 3, chains Table 4 (antibody)
heavy: EVQLVESGGGLVQPGGSLRLSCTASGFTFGSYPMDWVRQAPGKGLEWVSYISGRGDVTYYADSVKGRFTISRDNAKNTLYLQMNSLRAEDTAVYYCAKVQSPSELLWFGELLPVDYWGQGTLVTVSSASTKGPSVFPLAPCSRSTSESTAALGCLVKDYFPEPVTVSWNSGALTSGVHTFPAVLQSSGLYSLSSVVTVPSSSLGTKTYTCNVDHKPSNTKVDKRV[human IgG4 Fc with S228P (EU numbers) left out]
light: DIQMTQSPSSLSASVGDRVTITCQASQVIKTWLNWYQQKPGKAPKLLIYDASNLQRGVPSRFSGSGSGTDFTFTISSLQPEDIATYYCQQSASTPITFGGGTKVEIKRTVAAPSVFIFPPSDEQLKSGTASVVCLLNNFYPREAKVQWKVDNALQSGNSQESVTEQDSKDSTYSLSSTLTLSKADYEKHKVYACEVTHQGLSSPVTKSFNRGEC
Turning to B1, in assay [1], the “Ka” value is 813000 M⁻¹ s⁻¹ and the “Kd (1/s)” value was 0.000213 s⁻¹. Besides, in assay [2], the “Ka” value was 815000 M⁻¹ s⁻¹ and the “Kd (1/s)” value was 0.000265 s⁻¹. Moreover, the “Ka (1/Ms)” value in assay [3] was 8.21 E+05 1/Ms.

B2: Ab121: anti-pro/latent myostatin antibody; CDRs in Tables 2d-f, variable domains Table 3, chains Table 4 (antibody)
heavy: QVTLRESGPALVKPTQTLTLTCTVSGFSFSTSGMVVNWIRQPPGKALEWLAMIDWDADNIVYNSALKSRLTISKDTSKNQVVLTMTNMDPVDTATYYCAKDTGSGWFDAFDIWGQGTMVTVSSASTKGPSVFPLAPCSRSTSESTAALGCLVKDYFPEPVTVSWNSGALTSGVHTFPAVLQSSGLYSLSSVVTVPSSSLGTKTYTCNVDHKPSNTKVDKRV[human IgG4 Fc with S228P (EU numbers) left out]
light: DIVMTQSPDSLAVSLGERATINCKSSQSVLYSSTNQNFLAWYQQKPGQPPKLLIYQASTLQNGVPDRFSGSGSGTDFTLTISSLQAEDVAVYYCQQYLTTPYTFGGGTKVEIKRTVAAPSVFIFPPSDEQLKSGTASVVCLLNNFYPREAKVQWKVDNALQSGNSQESVTEQDSKDSTYSLSSTLTLSKADYEKHKVYACEVTHQGLSSPVTKSFNRGEC
With B2, the “Ka” value in assay [1] turned out to be 3.16e+06 M⁻¹ s⁻¹; in assay [2], 3.24e+06 M⁻¹ s⁻¹. Also, the “Kd (1/s)” value in assay [1] was 0.000318 s⁻¹; in assay [2], 0.000608 s⁻¹. Further, the “body weight of dexamethasone treated mice” value in assay [4] is “maintained the body weight of the dexamethasone treated mice to a greater extent than Ab2”.

B3: Ab128: anti-pro/latent myostatin antibody; CDRs in Tables 2d-f, variable domains Table 3, chains Table 4 (antibody)
heavy: EVQLVESGGGLVQPGGSLRLSCTASGFTLSSYSMDWVRQAPGKGLEWVSYITGSGDTTYYADSVKGRFTISRDNAKNTLYLQMNSLRAEDTAVYYCARGFGWISGWAEDYFDYWGQGTLVTVSSASTKGPSVFPLAPCSRSTSESTAALGCLVKDYFPEPVTVSWNSGALTSGVHTFPAVLQSSGLYSLSSVVTVPSSSLGTKTYTCNVDHKPSNTKVDKRV[human IgG4 Fc with S228P (EU numbers) left out]
light: DIQMTQSPSSLSASVGDRVTITCQASQSVYSYLNWYQQKPGKAPKLLIYGASRLEGGVPSRFSGSGSGTDFTFTISSLQPEDIATYYCQQHSTDQRTFGGGTKVEIKRTVAAPSVFIFPPSDEQLKSGTASVVCLLNNFYPREAKVQWKVDNALQSGNSQESVTEQDSKDSTYSLSSTLTLSKADYEKHKVYACEVTHQGLSSPVTKSFNRGEC
In the case of B3, in assay [1], the “Ka” value worked out at 1.27e+06 M⁻¹ s⁻¹ and the “Kd (1/s)” value amounted to 0.000463 s⁻¹. Besides, in assay [2], the “Ka” value was determined as 914000 M⁻¹ s⁻¹ and the “Kd (1/s)” value stood at 0.000655 s⁻¹.
